{"source": "PubChem BioAssay AID1463", "about": "(National Center for Advancing Translational Sciences (NCATS), 2008)", "note": "Several values for one entry are separate records, joined by “and”; a condition that tells them apart may be missing. Identical values can stand only once. About 2,600 (0.93%) of roughly 280,000 compounds were called active. Inconclusive results (about 8%) are left out. Calls follow the shape of the dose curve; as a rule, active = well fitted curve in the direction sought with a large enough effect; inconclusive = small, poorly fitted or top-dose-only effect; inactive = flat fitted curve, though single readings scatter. This is a selection; strong and weak results do not stand in their true shares. % is scaled to controls: 0 for no effect and ±100 for the full control effect; potency is read from the fitted curve at half-maximal effect; tags tell the direction and shape of the fitted curve or compound fluorescence and quenching.", "data": [{"experiment": "Counterscreen qHTS for Inhibitors of Tau Fibril Formation, Fluorescence Polarization; also: nearly all actives have a fitted effect of over 55% in size", "conditions": "tau K18 P301L Alexa594 fluorescence, heparin fibrillization; series mostly up to 57.7 µM; activity change, negative = decrease: at the top concentration", "outline": "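Human tau K18 P301L (15 uM unlabeled, 0.24 uM Alexa 594-labeled) in 100 mM sodium acetate pH 7 with 20 uM heparin, 6 hr at 37 C. ThT 30 uM added, 1 hr ambient; Alexa 594 FP and total fluorescence read at 555/632 nm.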", "values": [{"smiles": "Cc1ccc(CNC(=O)CSc2nc3n[nH]c(C)c3c(=N)n2-c2cccc(C)c2)cc1", "activity change, negative = decrease": "inactive: -28%"}, {"smiles": "CC(=O)c1ccc(OCc2ccccc2)c(C)c1O", "activity change, negative = decrease": "inactive: -13.8% [at 11.6 µM]"}, {"smiles": "CNCC(O)c1ccc(O)c(O)c1", "note": "(stereo not drawn)", "Potency": "inactive"}, {"smiles": "C[C@@H](C(=O)Nc1ccc2ccccc2c1)[C@H]1C[C@]1(C)[C@H](NS(=O)(=O)c1ccccc1)c1ccccc1", "Potency": "inactive"}, {"smiles": "CCn1c(C)cc(/C=C2/NC(=O)N(CC(=O)Nc3cccc(C)c3)C2=O)c1C", "activity change, negative = decrease": "inactive: -26.8%"}, {"smiles": "CN([C@@H](Cc1ccc(OS(=O)(=O)c2cccc3cnccc23)cc1)C(=O)N1CCN(c2ccccc2)CC1)S(=O)(=O)c1cccc2cnccc12", "activity change, negative = decrease": "inactive: -20.5%"}, {"smiles": "COc1cc(N/N=C(\\C)c2ccc(O)c(C)c2)nc(-c2ccccc2)n1", "Potency": "active: 8.91 µM [quencher]"}, {"smiles": "C[C@H](Cc1ccc(O)c(O)c1)[C@@H](C)Cc1ccc(O)c(O)c1", "activity change, negative = decrease": "inactive: -3.02%"}, {"smiles": "Cc1ccc2c(c1)c1ccc3c(c1n2C)C(=O)C=CC3=O", "Potency": "active: 0.891 µM [quencher]"}, {"smiles": "O=[N+]([O-])c1ccc(Sc2ncccn2)c([N+](=O)[O-])c1", "Potency": "active: 6.31 µM [quencher]"}, {"smiles": "CCCc1nn2c(N)c(/C=C3\\C=Nc4ccccc43)c(=O)nc2s1", "activity change, negative = decrease": "inactive: -30%"}, {"smiles": "CCOC(=O)C1=C(C)N=C2c3ccccc3C(=O)C2C1c1ccc(Br)cc1", "note": "(stereo not drawn)", "Potency": "active: 11.2 µM [quencher]"}, {"smiles": "COc1ccc(Nc2c(-c3ccco3)nc3cccc(C)n23)cc1", "activity change, negative = decrease": "inactive: -25.1%"}, {"smiles": "COc1ccc2c(c1)C(=O)[C@@H](OC(=O)NCc1ccc3c(c1)OCO3)[C@H](c1ccc(OC)c(Br)c1)O2", "activity change, negative = decrease": "inactive: -21.3%"}, {"smiles": "CN(Cc1cnc2nc(N)nc(N)c2n1)c1ccc(C(=O)NC(CCC(=O)O)C(=O)O)cc1", "note": "(stereo not drawn)", "activity change, negative = decrease": "inactive: -8.6%"}, {"smiles": "Cc1cccc(N(C)C(=S)Oc2ccc3ccccc3c2)c1", "activity change, negative = decrease": "inactive: -28.6%"}, {"smiles": "COC(=O)CCCC1=CC2=CC(=O)C(C)(OC(=O)c3cccs3)C(=O)C2=CN1c1cccc(C#N)c1", "note": "(stereo not drawn)", "activity change, negative = decrease": "inactive: -10.6% [at 11.6 µM]"}, {"smiles": "C[C@]1(C(=O)NCCc2c[nH]c3ccccc23)C=C[C@@H](Cc2ccccc2)N1C(=O)c1ccccc1", "activity change, negative = decrease": "inactive: -4.88%"}, {"smiles": "COc1cc(NC(=O)CCCSc2nc(-c3ccco3)cc(C(F)(F)F)n2)cc(OC)c1OC", "activity change, negative = decrease": "inactive: 10.6%"}, {"smiles": "Cc1nc2sccn2c(=O)c1CCN1CCC(=C(c2ccc(F)cc2)c2ccc(F)cc2)CC1", "Potency": "inactive"}, {"smiles": "CCC(C)C(=O)Nc1nc(C)c(-c2csc(Nc3cc(Cl)ccc3OC)n2)s1", "note": "(stereo not drawn)", "Potency": "active: 12.6 µM [quencher]"}, {"smiles": "CCc1cccc(NC(=O)CN(C)S(=O)(=O)c2cccc3cccnc23)c1", "activity change, negative = decrease": "inactive: -16.3%"}, {"smiles": "Clc1ccc(C(c2ccccc2Cl)C(Cl)Cl)cc1", "note": "(stereo not drawn)", "activity change, negative = decrease": "inactive: -14.8%"}, {"smiles": "Cc1ccc(S(=O)(=O)OCC2CN3C(CCC(C)C3c3ccc(Br)cc3)C(=O)O2)cc1", "note": "(stereo not drawn)", "activity change, negative = decrease": "inactive: -4.02% [at 11.6 µM] and inactive: -13.1% [at 11.6 µM] and inactive: -19.3% [at 11.6 µM]"}, {"smiles": "COc1cc(/C=C2\\SC(=O)N(c3ccccc3Cl)C2=O)cc([N+](=O)[O-])c1O", "Potency": "active: 15.8 µM [quencher]"}, {"smiles": "N[C@H](Cc1ccc(O)c(O)c1)C(=O)O", "activity change, negative = decrease": "inactive: -8.39%"}, {"smiles": "O=C(O)c1ccc(N/N=C/c2ccc(-c3cccc(Cl)c3)o2)cc1", "Potency": "active: 20 µM [quencher]"}, {"smiles": "CN1/C(=C\\C(=O)c2cccs2)Sc2ccccc21", "activity change, negative = decrease": "inactive: -20.5%"}]}]}
